Data on 31 sequences can be found in PMC12820563.

Some of the results follow. The list includes weakly bound sequences.

The assay has as its target T1, MBP-FoxP3dN (UniProt Q99JB6).
T1 sequence: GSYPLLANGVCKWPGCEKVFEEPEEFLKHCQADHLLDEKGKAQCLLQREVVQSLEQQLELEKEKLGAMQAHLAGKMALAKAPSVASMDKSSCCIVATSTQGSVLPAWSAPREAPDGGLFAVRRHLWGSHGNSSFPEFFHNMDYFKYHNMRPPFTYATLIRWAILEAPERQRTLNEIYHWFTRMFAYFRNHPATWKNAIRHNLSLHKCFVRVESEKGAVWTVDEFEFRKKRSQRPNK
The assay is described as follows: PD-seq (MBP pull-down with sequencing). To be noted: 20 mM Tris-HCl pH 7.5, 100 mM NaCl, 1.5 mM MgCl2, 0.4 uM protein, 0.1 uM dsDNA library, 30 min, room temperature, amylose pull-down; high values mean tight binding; double strand, one strand shown.
As for “GATGATTGTTCTCCCAGCTGATGAATTTCTAATTTCGAGTAAACAAATTTTCCTAATCTTTCTGTTCAAGCGCCATCTAC”, the binding signal (RPM ratio (pull-down/input)) worked out at 0.301.

On to “GATGATTGTTCTCCCAGCTGATGAATTGTTCAGATCGAGTAAACAAATTTTCCTAATCTTTCTGTTCAAGCGCCATCTAC”, for which the binding signal (RPM ratio (pull-down/input)) stood at 0.284.

For “GATGATTGTTCTCCCAGCTGATGAATTTCAACATTCGAGTAAACAAATTTTCCTAATCTTTCTGTTCAAGCGCCATCTAC”, the binding signal (RPM ratio (pull-down/input)) came to 0.561.

“GATGATTGTTCTCCCAGCTGATGAATTCATTGCTTCGAGTAAACAAATTTTCCTAATCTTTCTGTTCAAGCGCCATCTAC”: the binding signal (RPM ratio (pull-down/input)) came to 0.974.

“GATGATTGTTCTCCCAGCTGATGAATTCTTTTTATCGAGTAAACAAATTTTCCTAATCTTTCTGTTCAAGCGCCATCTAC”: the binding signal (RPM ratio (pull-down/input)) stood at 0.332.

Consider “GATGATTGTTCTCCCAGCTGATGAATTTTCTTCCTCGAGTAAACAAATTTTCCTAATCTTTCTGTTCAAGCGCCATCTAC”, for which the binding signal (RPM ratio (pull-down/input)) worked out at 0.205.

As to “GATGATTGTTCTCCCAGCTGATGAATTCATCGCTTCGAGTAAACAAATTTTCCTAATCTTTCTGTTCAAGCGCCATCTAC”, the binding signal (RPM ratio (pull-down/input)) was 0.549.

For the sequence “GATGATTGTTCTCCCAGCTGATGAATTATCTCCGTCGAGTAAACAAATTTTCCTAATCTTTCTGTTCAAGCGCCATCTAC”, the binding signal (RPM ratio (pull-down/input)) was 0.202.

For “GATGATTGTTCTCCCAGCTGATGAATTGACCCAGTCGAGTAAACAAATTTTCCTAATCTTTCTGTTCAAGCGCCATCTAC”, the binding signal (RPM ratio (pull-down/input)) worked out at 0.221.

For “GATGATTGTTCTCCCAGCTGATGAATTCCGGATTTCGAGTAAACAAATTTTCCTAATCTTTCTGTTCAAGCGCCATCTAC”, the binding signal (RPM ratio (pull-down/input)) amounted to 0.249.

As to “GATGATTGTTCTCCCAGCTGATGAATTGTCGGGATCGAGTAAACAAATTTTCCTAATCTTTCTGTTCAAGCGCCATCTAC”, the binding signal (RPM ratio (pull-down/input)) worked out at 0.302.

Take “GATGATTGTTCTCCCAGCTGATGAATTATAAGAATCGAGTAAACAAATTTTCCTAATCTTTCTGTTCAAGCGCCATCTAC”: the binding signal (RPM ratio (pull-down/input)) stood at 0.252.

Consider “GATGATTGTTCTCCCAGCTGATGAATTGGCGGTATCGAGTAAACAAATTTTCCTAATCTTTCTGTTCAAGCGCCATCTAC”, for which the binding signal (RPM ratio (pull-down/input)) was determined as 0.566.

With “GATGATTGTTCTCCCAGCTGATGAATTCCATCGCTCGAGTAAACAAATTTTCCTAATCTTTCTGTTCAAGCGCCATCTAC”, the binding signal (RPM ratio (pull-down/input)) was 0.389.

With “GATGATTGTTCTCCCAGCTGATGAATTTCGGAAATCGAGTAAACAAATTTTCCTAATCTTTCTGTTCAAGCGCCATCTAC”, the binding signal (RPM ratio (pull-down/input)) came out at 0.275.

“GATGATTGTTCTCCCAGCTGATGAATTTTTGGATTCGAGTAAACAAATTTTCCTAATCTTTCTGTTCAAGCGCCATCTAC”: the binding signal (RPM ratio (pull-down/input)) was found to be 0.259.

With “GATGATTGTTCTCCCAGCTGATGAATTTCACGTTTCGAGTAAACAAATTTTCCTAATCTTTCTGTTCAAGCGCCATCTAC”, the binding signal (RPM ratio (pull-down/input)) worked out at 0.433.

Consider “GATGATTGTTCTCCCAGCTGATGAATTTTCGGTGTCGAGTAAACAAATTTTCCTAATCTTTCTGTTCAAGCGCCATCTAC”, for which the binding signal (RPM ratio (pull-down/input)) was found to be 0.401.

“GATGATTGTTCTCCCAGCTGATGAATTATTAGGTTCGAGTAAACAAATTTTCCTAATCTTTCTGTTCAAGCGCCATCTAC”: the binding signal (RPM ratio (pull-down/input)) amounted to 0.47.

As to “GATGATTGTTCTCCCAGCTGATGAATTGTAACGCTCGAGTAAACAAATTTTCCTAATCTTTCTGTTCAAGCGCCATCTAC”, the binding signal (RPM ratio (pull-down/input)) is 0.598.

For “GATGATTGTTCTCCCAGCTGATGAATTCTCGGATTCGAGTAAACAAATTTTCCTAATCTTTCTGTTCAAGCGCCATCTAC”, the binding signal (RPM ratio (pull-down/input)) came to 0.254.

For the sequence “GATGATTGTTCTCCCAGCTGATGAATTCCCTACTTCGAGTAAACAAATTTTCCTAATCTTTCTGTTCAAGCGCCATCTAC”, the binding signal (RPM ratio (pull-down/input)) worked out at 0.301.

With “GATGATTGTTCTCCCAGCTGATGAATTGGAACGCTCGAGTAAACAAATTTTCCTAATCTTTCTGTTCAAGCGCCATCTAC”, the binding signal (RPM ratio (pull-down/input)) amounted to 0.292.

Regarding “GATGATTGTTCTCCCAGCTGATGAATTATCGATTTCGAGTAAACAAATTTTCCTAATCTTTCTGTTCAAGCGCCATCTAC”, the binding signal (RPM ratio (pull-down/input)) was 0.489.

In the case of “GATGATTGTTCTCCCAGCTGATGAATTGCGTGACTCGAGTAAACAAATTTTCCTAATCTTTCTGTTCAAGCGCCATCTAC”, the binding signal (RPM ratio (pull-down/input)) is 1.47.

With “GATGATTGTTCTCCCAGCTGATGAATTTGCACTTTCGAGTAAACAAATTTTCCTAATCTTTCTGTTCAAGCGCCATCTAC”, the binding signal (RPM ratio (pull-down/input)) was 0.826.

On to “GATGATTGTTCTCCCAGCTGATGAATTGAGGAAGTCGAGTAAACAAATTTTCCTAATCTTTCTGTTCAAGCGCCATCTAC”, for which the binding signal (RPM ratio (pull-down/input)) was 0.178.

On to “GATGATTGTTCTCCCAGCTGATGAATTGTGAAGATCGAGTAAACAAATTTTCCTAATCTTTCTGTTCAAGCGCCATCTAC”, for which the binding signal (RPM ratio (pull-down/input)) was found to be 0.332.

“GATGATTGTTCTCCCAGCTGATGAATTCGAGCTGTCGAGTAAACAAATTTTCCTAATCTTTCTGTTCAAGCGCCATCTAC”: the binding signal (RPM ratio (pull-down/input)) was found to be 0.325.

Turning to “GATGATTGTTCTCCCAGCTGATGAATTGTGCCGTTCGAGTAAACAAATTTTCCTAATCTTTCTGTTCAAGCGCCATCTAC”, the binding signal (RPM ratio (pull-down/input)) came out at 2.47.

Consider “GATGATTGTTCTCCCAGCTGATGAATTGGCACCATCGAGTAAACAAATTTTCCTAATCTTTCTGTTCAAGCGCCATCTAC”, for which the binding signal (RPM ratio (pull-down/input)) stood at 0.499.
